According to a collection of fitness landscapes (doi:10.1126/science.1257360):
Some of the results follow.

B1: PhoQ; a variant is named by its letters at X, in order, P23837 (parent)
chain: MKKLLRLFFPLSLRVRFLLATAAVVLVLSLAYGMVALIGYSVSFDKTTFRLLRGESNLFYTLAKWENNKLHVELPENIDKQSPTMTLIYDENGQLLWAQRDVPWLMKMIQPDWLKSNGFHEIEADVNDTSLLLSGDHSIQQQLQEVREDDDDAEMTHSVAVNVYPATSRMPKLTIVVVDTIPVELKSSYMVWSWFIYVLSANLLLVIPLLWVAAWWSLRPIEALAKEVRELEEHNRELLNPATTRELTSLVRNLNRLLKSERERYDKYRTTLTDLTHSLKTPLXXLQXXLRSLRSEKMSVSDAEPVMLEQISRISQQIGYYLHRASMRGGTLLSRELHPVAPLLDNLTSALNKVYQRKGVNISLDISPEISFVGEQNDFVEVMGNVLDNACKYCLEFVEISARQTDEHLYIVVEDDGPGIPLSKREVIFDRGQRVDTLRPGQGVGLAVAREITEQYEGKIVAGESMLGGARMEVIFGRQHSAPKDE

Variants of: B1
Assay: enrichment ratio after two sorts for PhoP signalling (ratio (wild type AVST 3.29)); higher = more functional
Conditions: with PhoP (E. coli)

| Variant | enrichment ratio |
| --- | --- |
| ELSG | ≤ 0.25 |
| PDMY | ≤ 0.25 |
| DNML | ≤ 0.25 |
| VAPT | ≤ 0.25 |
| RWGC | ≤ 0.25 |
| DIFL | ≤ 0.25 |
| EDDT | ≤ 0.25 |
| VVYP | ≤ 0.25 |
| NFQT | ≤ 0.25 |
| KSDN | ≤ 0.25 |
| FGIE | ≤ 0.25 |
| AGFL | 5.03 |
| FEPD | ≤ 0.25 |
| QEWT | 11.3 |
| HDRY | ≤ 0.25 |
| DKVY | ≤ 0.25 |
| TNKM | ≤ 0.25 |
| YGAL | ≤ 0.25 |
| LSMG | ≤ 0.25 |
| MYEK | ≤ 0.25 |
| FCLQ | 6.86 |
| GSYR | ≤ 0.25 |
| IPLE | ≤ 0.25 |
| VECC | 0.344 |
| SCRN | ≤ 0.25 |
| HEFQ | ≤ 0.25 |

| Variant | enrichment ratio |
| --- | --- |
| MAGH | 8.79 |
| SYGT | ≤ 0.25 |
| PQWA | ≤ 0.25 |
| ELAT | ≤ 0.25 |
| HHRG | ≤ 0.25 |
| QNKP | ≤ 0.25 |
| ITWT | ≤ 0.25 |
| LPPD | ≤ 0.25 |
| PCWY | ≤ 0.25 |
| DCRC | ≤ 0.25 |
| RGEI | ≤ 0.25 |
| HTIF | ≤ 0.25 |
| YYIC | ≤ 0.25 |
| ATKT | ≤ 0.25 |
| REWD | ≤ 0.25 |
| YYGV | ≤ 0.25 |
| NRMF | ≤ 0.25 |
| QTLH | ≤ 0.25 |
| TGCY | 8.48 |
| NWWN | ≤ 0.25 |
| KIHM | ≤ 0.25 |
| MKFK | ≤ 0.25 |
| EWHS | ≤ 0.25 |
| RTAK | ≤ 0.25 |
| YYAS | ≤ 0.25 |
| NASG | ≤ 0.25 |

| Variant | enrichment ratio |
| --- | --- |
| HPWR | ≤ 0.25 |
| VLRR | ≤ 0.25 |
| YRPS | ≤ 0.25 |
| ASKY | ≤ 0.25 |
| RNHI | ≤ 0.25 |
| NLAW | ≤ 0.25 |
| VSTY | ≤ 0.25 |
| GSWW | ≤ 0.25 |
| KDHK | ≤ 0.25 |
| LMRT | ≤ 0.25 |
| NQLE | ≤ 0.25 |
| QDMF | ≤ 0.25 |
| NVLR | ≤ 0.25 |
| PHCC | ≤ 0.25 |
| RCWP | ≤ 0.25 |
| APIE | ≤ 0.25 |
| GVYI | ≤ 0.25 |
| FVVG | ≤ 0.25 |
| NTIY | ≤ 0.25 |
| EACN | ≤ 0.25 |
| EGRI | ≤ 0.25 |
| YEKE | ≤ 0.25 |
| AGWF | ≤ 0.25 |
| QKLM | ≤ 0.25 |
| TTWP | ≤ 0.25 |
| HHSH | ≤ 0.25 |

| Variant | enrichment ratio |
| --- | --- |
| NSRW | ≤ 0.25 |
| VWVV | ≤ 0.25 |
| KVIF | ≤ 0.25 |
| PQHA | ≤ 0.25 |
| TKFD | ≤ 0.25 |
| QRAM | ≤ 0.25 |
| STVG | 9.89 |
| IYAR | ≤ 0.25 |
| SDCF | ≤ 0.25 |
| DNRF | ≤ 0.25 |
| ETCI | ≤ 0.25 |
| NSTE | ≤ 0.25 |
| KFNR | ≤ 0.25 |
| SCTN | 6.66 |
| RYRC | ≤ 0.25 |
| AFPH | ≤ 0.25 |
| HDEY | ≤ 0.25 |
| LSCY | ≤ 0.25 |
| YPCQ | ≤ 0.25 |
| DCYH | ≤ 0.25 |
| GFWV | ≤ 0.25 |
| PAQM | ≤ 0.25 |
| KESQ | ≤ 0.25 |
| TCNP | ≤ 0.25 |
| IKRC | ≤ 0.25 |
| SSDY | ≤ 0.25 |

| Variant | enrichment ratio |
| --- | --- |
| YWHG | ≤ 0.25 |
| MRIV | ≤ 0.25 |
| AFFY | ≤ 0.25 |
| SMMF | 8.81 |
| ERIH | ≤ 0.25 |
| VALQ | 9.9 |
| LVAN | ≤ 0.25 |
| IEWM | ≤ 0.25 |
| SVKD | ≤ 0.25 |
| WPRR | ≤ 0.25 |
| HLAS | ≤ 0.25 |
| YSHS | ≤ 0.25 |
| LIDH | ≤ 0.25 |
| VVQI | ≤ 0.25 |
| DYMQ | ≤ 0.25 |
| YYME | ≤ 0.25 |
| LCSW | ≤ 0.25 |
| DNTG | ≤ 0.25 |
| FCYF | ≤ 0.25 |
| PEFV | ≤ 0.25 |
| GKCT | ≤ 0.25 |
| HWKG | ≤ 0.25 |
| SDEM | ≤ 0.25 |
| GYTY | ≤ 0.25 |
| NIKT | ≤ 0.25 |
| LSHI | 4.24 |

| Variant | enrichment ratio |
| --- | --- |
| HTWK | ≤ 0.25 |
| ILEM | ≤ 0.25 |
| GQNS | ≤ 0.25 |
| QKKM | ≤ 0.25 |
| IPES | ≤ 0.25 |
| FNYL | ≤ 0.25 |
| QKNN | ≤ 0.25 |
| KKPY | ≤ 0.25 |
| HCGG | ≤ 0.25 |
| MSVW | ≤ 0.25 |
| ESWL | ≤ 0.25 |
| DLPL | ≤ 0.25 |
| RMHM | ≤ 0.25 |
| LTLQ | 2.15 |
| MDFE | ≤ 0.25 |
| VGEY | ≤ 0.25 |
| PYLV | ≤ 0.25 |
| TFST | 0.983 |
| PRPR | ≤ 0.25 |
| FYDI | ≤ 0.25 |
| RFIG | ≤ 0.25 |
| DLDC | ≤ 0.25 |
| WNIV | ≤ 0.25 |
